# Laboratory results from the BET-seq Pho4 binding data (Le et al. 2018).
# The other results are listed elsewhere or left out. Values were computed here from the reads of four pooled replicates and scatter widely.
# Molecular target: T1, Pho4 (S. cerevisiae) (UniProt P07270)
# T1 sequence: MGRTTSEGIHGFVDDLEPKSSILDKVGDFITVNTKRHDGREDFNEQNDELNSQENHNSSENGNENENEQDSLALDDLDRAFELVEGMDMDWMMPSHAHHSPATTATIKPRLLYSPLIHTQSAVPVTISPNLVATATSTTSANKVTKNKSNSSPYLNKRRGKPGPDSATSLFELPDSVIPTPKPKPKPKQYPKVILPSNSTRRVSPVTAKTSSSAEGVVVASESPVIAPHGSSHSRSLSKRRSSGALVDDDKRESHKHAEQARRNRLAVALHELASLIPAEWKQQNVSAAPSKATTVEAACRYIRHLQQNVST
# Assay: relative binding free energy (BET-seq); higher = weaker binding
# Conditions: reference: library average
row,Sequence,relative binding free energy [kcal/mol]
1,TCGGTCACGTGCGAGG,0.17
2,TGTGTCACGTGGCTAG,-0.01
3,TTGTGCACGTGGGGCA,-0.09
4,TGTGCCACGTGGGGGG,-0.22
5,GGTTGCACGTGAGTAG,0.34
6,AGCGGCACGTGTGACG,0.07
7,ATTAGCACGTGCGAGT,-0.07
8,CGTGACACGTGATAAG,0.26
9,TGGAACACGTGGGGAG,-0.1
10,TTTTTCACGTGGTATA,0.19
11,GGAATCACGTGAGGAT,0.44
12,GATGTCACGTGGTTCG,0.14
13,TGCCGCACGTGTTGGG,-0.08
14,ACCGGCACGTGGAGGG,-0.13
15,CGGATCACGTGTGTCG,0.15
16,CTTTGCACGTGTTTCT,0
17,ATACACACGTGGTGGT,-0.13
18,AATATCACGTGGGTGT,0.07
19,CGTTTCACGTGTTCGT,0.24
20,AGAGACACGTGTGTAG,0.13
21,TTATCCACGTGATGTG,0.09
22,ATGAACACGTGTATTT,0.07
23,GTGTGCACGTGGTCAG,-0.12

row,Sequence,relative binding free energy [kcal/mol]
1,TTATTCACGTGGTTGA,0.16
2,TGCCTCACGTGAGAGG,0.43
3,ATGTTCACGTGGGGTG,0.12
4,AGGCGCACGTGATTTT,0.1
5,TTTGCCACGTGGTCAG,-0.1
6,GTTACCACGTGGGAGT,-0.06
7,TCACTCACGTGAGGGG,0.29
8,ATAGTCACGTGTGCTT,0.08
9,ATTTTCACGTGTTGTC,0.29
10,CTGTGCACGTGAGGGG,0.2
11,TGAATCACGTGATAGG,0.27
12,GTTCGCACGTGTTCGT,0.04
13,TAGGACACGTGATGGA,0.15
14,GCAGTCACGTGTGAGT,0.27
15,TTCTTCACGTGAGCGT,0.3
16,TTTTTCACGTGTCTCG,0.3
17,TTTGGCACGTGAATCA,-0.02
18,GCGTTCACGTGGTCTG,0.22
19,AGGTGCACGTGATTAA,-0.12
20,TTGGACACGTGGGTCG,-0.1
21,ATTGGCACGTGGAGGC,0.04
22,GTCATCACGTGGTGTC,0.26
23,GCGGACACGTGTGTTA,0.17

row,Sequence,relative binding free energy [kcal/mol]
1,TTACTCACGTGATTTT,0.2
2,CTTGGCACGTGAGATT,0.14
3,ACGTACACGTGAGGTG,0.08
4,TGAAGCACGTGTAAGT,-0.06
5,CGATGCACGTGTGTGA,-0.05
6,CTTGTCACGTGGGTGG,-0.08
7,AGAATCACGTGAAGGT,0.38
8,AGCAGCACGTGGGTTT,-0.24
9,TCGTTCACGTGGTGGA,0.2
10,CCCTTCACGTGTGGGG,0.34
11,TCGTACACGTGCGTGT,-0.06
12,GGAATCACGTGCTAGG,0.11
13,TTCTGCACGTGTTAGG,-0.02
14,GGTTACACGTGTGTTT,0.18
15,GGAGGCACGTGCTTGG,-0.09
16,CGTTTCACGTGGAGGG,0.29
17,AGTGTCACGTGCGATG,0.2
18,AGAAACACGTGTGTTA,0
19,CGGGTCACGTGGAGTG,0.05
20,GACGGCACGTGAGGGG,0.31
21,TTCCGCACGTGGGTAT,-0.11
22,AGTGTCACGTGGTAGT,0.08
23,GGGTGCACGTGAGTTG,0.28

row,Sequence,relative binding free energy [kcal/mol]
1,GGGTTCACGTGGGCAC,0.27
2,TTCGTCACGTGAAGTT,0.3
3,GCATGCACGTGTTATG,0.01
4,GGTTCCACGTGGGGGC,-0.04
5,TTTGTCACGTGCACGT,0.2
6,AGTATCACGTGGCTTT,0.1
7,TAGGGCACGTGCATTT,-0.05
8,ATTGGCACGTGTGGAA,-0.07
9,TGTTGCACGTGGTTTA,0
10,GGTCTCACGTGTGGGA,0.4
11,CTAGTCACGTGTGGTT,0.06
12,CGGGTCACGTGTTTTT,0.13
13,ACTTGCACGTGGGATT,-0.02
14,ATTAGCACGTGTAATT,0.02
15,TTTTTCACGTGGTAGC,0.21
16,ACTGTCACGTGAGAGG,0.19
17,GGGGTCACGTGGACGC,0.21
18,ATGTCCACGTGATTGG,0.07
19,TTTGGCACGTGGGATA,-0.18
20,CTTGTCACGTGGTTCT,0.09
21,TTCTACACGTGGCATG,0.28
22,GCGGCCACGTGTTTGG,0.09
23,CATGCCACGTGTTGGG,0.03

row,Sequence,relative binding free energy [kcal/mol]
1,GGTGGCACGTGGAACT,0.01
2,TTCTTCACGTGGCGTG,0.19
3,GTTTTCACGTGAAGTT,0.36
4,AAGCGCACGTGGATGG,-0.01
5,CTTAGCACGTGTTGAT,0.05
6,TAAAGCACGTGTAGTA,0
7,AGCTTCACGTGTATGT,0.23
8,AGTGGCACGTGCTTGG,-0.15
9,GGGTTCACGTGGCTCT,0.22
10,AGTATCACGTGTCGTT,0.1
11,CGTGGCACGTGCTAGT,-0.06
12,TTTTTCACGTGACGGG,0.45
13,CGTTTCACGTGTGATA,0.24
14,TTGTACACGTGTAATG,0.13
15,GTTGTCACGTGTCGGG,0.1
16,TTTGTCACGTGGCCAT,0.07
17,GCTGTCACGTGAGGAG,0.35
18,TGCTTCACGTGTATGT,0.22
19,TTCTTCACGTGCTATG,0.33
20,CGTTGCACGTGGTAGG,-0.09
21,TTATTCACGTGCATGT,0.26
22,GTGGTCACGTGTTGTT,0.11
23,ATTTTCACGTGGTATA,0.21
